# Experimental data taken from PubChem BioAssay AID652104 (National Center for Advancing Translational Sciences (NCATS), 2013).
# Out of some 410,000 compounds screened, about 7,200 (1.8%) were called active. The inconclusive results got no clear call from the source; some entries with a clear call stand among them for comparison. The call rests on the fitted dose curve; in most records, active means well fitted activation curve with a large enough effect; inconclusive means small, poorly fitted or top-dose-only effect, or another doubt; inactive means no such curve, though single readings can be large or run the other way. Potencies of inconclusive entries are left out as doubtful fits.
# Test: qHTS of TDP-43 Inhibitors; further: nearly all actives have a fitted effect of over 50% in size
# Conditions: TDP-43 expressing yeast growth rescue, BacTiter-Glo, 24 h; series mostly up to 46.1 µM
# How it was run: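 Luminescence from BacTiter-Glo reports growth of TDP-43-expressing yeast after 24 hr at 30 deg C with compound. Cells were raffinose-pregrown to mid-log, then seeded in galactose medium at OD600=0.02.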
# Potency means the concentration at half of the fitted maximal effect; tags describe the fitted curve by direction and shape.
row,Structure (SMILES),Potency
1,CC1(C)CCC[C@@]2(C)CC=C(C(=O)O)[C@@H]3C[C@]312,active: 11.2 µM
2,COC(=O)c1cc(Cc2ccc(N)c(C(=O)OC)c2)ccc1N,"inconclusive [activator, single point]"
3,CCc1ccc(C2CC(=O)c3c([nH]c(C(=O)OCc4ccc(C)cc4)c3C)C2)cc1 (stereo unspecified),inactive
4,CCC(CO)n1c(SCc2cc(=O)oc3cc(C)ccc23)nc2ccccc2c1=O (stereo unspecified),"inconclusive [activator, single point]"
5,Cc1ccc(NC(=O)COC(=O)c2cc(=O)c3ccccc3o2)cc1F,inactive
6,CCC(C(=O)NCc1ccc2c(c1)CCN2C(=O)c1ccc(F)cc1)c1ccccc1 (stereo unspecified),inactive
7,Cc1ccc2c(CN(Cc3ccccc3)Cc3ccccc3)cc(=O)oc2c1,"inconclusive [activator, full curve, poor fit]"
8,O=C(NCCC1=CCCCC1)c1ccc(Cl)c([N+](=O)[O-])c1,"inconclusive [activator, single point]"
9,O=C(NC1CCCCC1)C(=S)NCc1ccccc1,"inconclusive [activator, single point]"
10,CC(=O)c1ccc(-c2cccc(-c3nc4ccccn4c3NC3CCCCC3)c2)cc1,"inconclusive [activator, single point]"
11,Cc1ccc(NS(=O)(=O)c2ccc(-c3coc(C)n3)cc2)c(Br)c1,"inconclusive [activator, single point]"
12,Cc1ccc2c(c1)sc1nc(-c3cc4cc(Cl)ccc4oc3=O)cn12,inactive
13,CCCc1c(C(=O)O)cnn1-c1ccc(Cl)cc1,active: 20 µM
14,COc1cc2[nH]c(=O)n(Cc3ccc(C(=O)NCc4ccc(C)cc4)cc3)c(=O)c2cc1OC,inactive
15,CCNC(=S)Nc1ccc2c(c1)oc1ccccc12,"inconclusive [activator, partial curve]"
16,O=C(Nc1nnc(C2=COCCO2)o1)c1ccc(Cc2ccccc2)cc1,inactive
17,Cc1cc(C)nc(Nc2cccc(Cl)c2)n1,active: 8.91 µM
18,COc1ccc2c(c1)C(C)CC(C)(C)N2C(=O)CSc1ncn[nH]1 (stereo unspecified),inactive
19,O=C(CSC1=NCCS1)N1CCc2ccccc21,"inconclusive [activator, partial curve, poor fit]"
20,Cc1ccc(OCC(=O)N(Cc2ccc(Cl)cc2)CC2CCCO2)cc1C (stereo unspecified),"inconclusive [activator, partial curve]"
21,CC1=CCC2C(=O)N(c3cccc(C(=O)Nc4ccccc4Cl)c3)C(=O)C2C1 (stereo unspecified),inactive
